Hit rate of the full screen: of about 110,000 compounds, about 230 (0.21%) showed an effect of 50% or more. The list shows a part of the results.

The record followed here is article PMC6919601, “Identification of Plasmodium dipeptidyl aminopeptidase allosteric inhibitors by high throughput screening” (PLoS ONE, 2019).
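Also: 30 min substrate incubation versus DMSO and 10 µM JCP410 controls.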

For this experiment, the target named is DPAP1 (Plasmodium falciparum, UniProt Q8IIJ9). Briefly: primary screen, percent inhibition; read by cleavage of a fluorogenic dipeptide substrate; higher = more effect of the substance. On the set-up: species or system P. falciparum D10 trophozoite lysates; single well.
DPAP1, sequence (Q8IIJ9 whole entry, looked up): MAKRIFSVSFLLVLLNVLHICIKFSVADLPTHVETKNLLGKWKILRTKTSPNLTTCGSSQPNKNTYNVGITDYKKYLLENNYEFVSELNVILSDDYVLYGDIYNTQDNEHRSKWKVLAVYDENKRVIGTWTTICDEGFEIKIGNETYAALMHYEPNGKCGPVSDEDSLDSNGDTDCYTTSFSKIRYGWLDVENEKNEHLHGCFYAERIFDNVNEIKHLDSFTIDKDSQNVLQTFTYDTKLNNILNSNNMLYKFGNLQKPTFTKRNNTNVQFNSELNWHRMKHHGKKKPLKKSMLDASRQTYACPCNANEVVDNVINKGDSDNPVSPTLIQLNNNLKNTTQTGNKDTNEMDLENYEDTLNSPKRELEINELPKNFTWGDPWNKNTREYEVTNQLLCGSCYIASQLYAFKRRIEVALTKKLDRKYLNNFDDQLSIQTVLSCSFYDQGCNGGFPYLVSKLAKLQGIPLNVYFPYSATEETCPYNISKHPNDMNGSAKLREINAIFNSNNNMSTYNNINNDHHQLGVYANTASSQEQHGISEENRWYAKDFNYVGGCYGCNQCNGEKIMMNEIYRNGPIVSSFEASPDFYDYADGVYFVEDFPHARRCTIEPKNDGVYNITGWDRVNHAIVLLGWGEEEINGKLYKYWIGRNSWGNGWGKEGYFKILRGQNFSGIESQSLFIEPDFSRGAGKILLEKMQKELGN
With `C#CCN1C(=O)S/C(=C\c2ccc(SC)cc2)C1=O`, the “% Inhibition @ 10 uM” value was -1.84%.

Regarding `Cc1nnc(N2CCCC(C(=O)O)C2)c2nn(-c3ccccc3)c(C)c12` (stereo not drawn), the “% Inhibition @ 10 uM” value is given as 4.79%.

With `Cc1cc(C(F)(F)F)c2c(C)nn(-c3ccc(C)c(C)c3)c2n1`, the “% Inhibition @ 10 uM” value came to 0.221%.

For `CCNc1ccc(Cl)cc1[N+](=O)[O-]`, the “% Inhibition @ 10 uM” value was found to be 8.23%.

Take `CCOc1c(Cl)cc(/C=C2/SC(=O)N(C(C)C)C2=O)cc1OC`: the “% Inhibition @ 10 uM” value is recorded as -2.19%.

As to `O=C(c1cc(-c2ccc(F)cc2)no1)N1CCN(Cc2ccc3c(c2)OCO3)CC1`, the “% Inhibition @ 10 uM” value is recorded as -3.91%.

Turning to `COc1ccc(NS(=O)(=O)c2ccc(OC)c(Cl)c2Cl)cc1Cl`, the “% Inhibition @ 10 uM” value is reported as -1.24%.

As to `CCOc1ccc(CNc2nc3nc4c(c(O)n3n2)CCC4)cc1`, the “% Inhibition @ 10 uM” value is recorded as -4.19%.

On to `COc1ccc(C2CC(=O)NC2=O)cc1Br` (stereo not drawn), for which the “% Inhibition @ 10 uM” value amounted to 1.24%.

Turning to `COc1ccc(S(=O)(=O)Nc2cc(OC)ccc2OC)cc1`, the “% Inhibition @ 10 uM” value is on record as 3.72%.

Consider `CC(C)CC(Nc1nc(Oc2ccccc2)nc(Oc2ccccc2)n1)C(=O)O` (stereo not drawn), for which the “% Inhibition @ 10 uM” value is -4.01%.

For the compound `COc1ccc(C2c3c(oc4ccc(C)cc4c3=O)C(=O)N2c2nc(C)c(C(C)=O)s2)cc1OC` (stereo not drawn), the “% Inhibition @ 10 uM” value was -3.13%.

For the compound `O=C(NCCCN1CCCC1=O)c1cc2c(Cl)nc3ccccc3c2s1`, the “% Inhibition @ 10 uM” value worked out at 3.6%.

In the case of `C=CCn1c(=N)n(CC(O)c2ccc(Cl)c(Cl)c2)c2ccccc21` (stereo not drawn), the “% Inhibition @ 10 uM” value turned out to be 0.147%.

For the compound `COc1cc(CN2CCN(S(=O)(=O)c3ccc(Cl)cc3)CC2)cc(OC)c1OC`, the “% Inhibition @ 10 uM” value is -3.03%.

For the compound `Cc1cc(C)n2nc(SCC(=O)c3cccs3)nc2n1`, the “% Inhibition @ 10 uM” value stood at 0.627%.

Turning to `CCc1ccc(OCC(=O)Nc2ccc(C(C)=O)cc2)c(Br)c1`, the “% Inhibition @ 10 uM” value was -5.29%.

Consider `Cc1ccc(S(=O)(=O)Cc2nc(-c3ccc(C(=O)NCc4ccccn4)cc3)oc2C)cc1`, for which the “% Inhibition @ 10 uM” value is listed as -2.92%.

In the case of `Cc1ccc2c(O)c(C(=O)c3ccccc3)cnc2n1`, the “% Inhibition @ 10 uM” value was determined as 1.15%.

In the case of `Fc1ccc(-c2nnn3c2nc(N2CCOCC2)c2ccccc23)cc1`, the “% Inhibition @ 10 uM” value is given as -2.92%.

As to `O=C(C1CCCC1)N1CCN(C(=O)C2CCCC2)CC1`, the “% Inhibition @ 10 uM” value was -2.82%.

`CCCN1CCC(N2CCCC(C)C2)CC1` (stereo not drawn): the “% Inhibition @ 10 uM” value was determined as 3.19%.

As to `COc1ccc(C2NC(=O)NC(C)=C2C(=O)Nc2cc(Cl)ccc2C)cc1` (stereo not drawn), the “% Inhibition @ 10 uM” value is 5.85%.

In the case of `COc1ccc(-c2noc(CNC(=O)c3cccs3)n2)cc1`, the “% Inhibition @ 10 uM” value is -2.99%.

With `O=C(CC(Cc1ccccc1)C(=O)O)NC1CCCCC1` (stereo not drawn), the “% Inhibition @ 10 uM” value is 3.17%.

On to `CCN(CC)c1ccc(-n2cnc3cc(N)ccc32)cc1`, for which the “% Inhibition @ 10 uM” value was found to be 8.06%.

On to `CCOc1ccccc1NS(=O)(=O)c1cc(Cl)ccc1Cl`, for which the “% Inhibition @ 10 uM” value is given as -10.2%.

Consider `O=c1c(Cl)c(Cl)cnn1C12CC3CC(CC(C3)C1)C2`, for which the “% Inhibition @ 10 uM” value stood at 36.2%.

For `CC1CCCCN1CCCN1C(=O)c2ccccc2C1C(=O)NC1CCCCC1` (stereo not drawn), the “% Inhibition @ 10 uM” value turned out to be 2.05%.

For `Cc1nc2cc(CCO)ccc2s1`, the “% Inhibition @ 10 uM” value is listed as -2.66%.

On to `O=C(Nc1ccc(Cl)c(Cl)c1)c1ccccc1NC(=O)c1ccccc1C(=O)O`, for which the “% Inhibition @ 10 uM” value was 2.48%.

As for `CC(C)N(CCNC(=O)C1CCN(S(=O)(=O)N2CCOCC2)CC1)Cc1ccccc1`, the “% Inhibition @ 10 uM” value came to 3.93%.

Regarding `O=C(c1ccc(CSc2nc3ccncc3[nH]2)cc1)N1CCN(C(=O)c2ccco2)CC1`, the “% Inhibition @ 10 uM” value is -1.58%.

On to `CCCSCCCNC(=O)C1CCCN(S(=O)(=O)N2CCC3(CC2)OCCO3)C1` (stereo not drawn), for which the “% Inhibition @ 10 uM” value is 4.4%.

Regarding `CCCn1c(CCC(=O)N2CCC3(CC2)OCCO3)nc2cccnc21`, the “% Inhibition @ 10 uM” value is listed as -4.74%.

Turning to `Cc1ccc(C(=O)N2CCC(C(=O)O)CC2)cc1`, the “% Inhibition @ 10 uM” value turned out to be 0.755%.

In the case of `Cc1cc2c(c(=O)o1)C(c1cccc(O)c1)C(C#N)=C(N)O2` (stereo not drawn), the “% Inhibition @ 10 uM” value came out at 4.89%.

In the case of `COc1ccc(NC(=O)c2ccccc2NC(=O)c2cccs2)cc1`, the “% Inhibition @ 10 uM” value is reported as 0.812%.

In the case of `Cc1cc(C)c2c(-n3cccc3)c(C(=O)NCc3ccc4c(c3)OCO4)sc2n1`, the “% Inhibition @ 10 uM” value is reported as -1.08%.

In the case of `O=C(Nc1ccc(Br)cc1)C1CC=CCC1C(=O)OCC1CCCO1` (stereo not drawn), the “% Inhibition @ 10 uM” value is reported as -0.25%.

With `COC(=O)c1ccc2[nH]c(S)nc2c1`, the “% Inhibition @ 10 uM” value worked out at 18.9%.

`CCNCC1(c2ccc(OC)c(OC)c2)CCCC1`: the “% Inhibition @ 10 uM” value was determined as 2.78%.

On to `COc1cccc(NC(=O)c2cccc(C(F)(F)F)c2)c1`, for which the “% Inhibition @ 10 uM” value is reported as 4.31%.

For `CCOC(=O)N1CCC(NC(=O)C2CCN(c3nn4c(=O)cc(C)nc4s3)CC2)CC1`, the “% Inhibition @ 10 uM” value is on record as -0.281%.

In the case of `O=C(c1ccc(Cl)cc1Cl)N1CCN(c2ccc([N+](=O)[O-])cc2)CC1`, the “% Inhibition @ 10 uM” value is -3.65%.

With `CCc1ccc(OCC(=O)Nc2ccc(S(=O)(=O)N3CCN(C)CC3)cc2)c(Br)c1`, the “% Inhibition @ 10 uM” value is on record as -1.63%.

As for `CCCCc1ccc(S(=O)(=O)N2CCN(C(=O)c3ccco3)CC2)cc1`, the “% Inhibition @ 10 uM” value was -5.14%.

For the compound `CCNC(=S)N1CCN(CC/N=C/C2=C(O)CC(c3cccs3)CC2=O)CC1` (stereo not drawn), the “% Inhibition @ 10 uM” value came out at 2.09%.

Take `COC(=O)c1sccc1NC(=O)CCC(=O)O`: the “% Inhibition @ 10 uM” value amounted to 6.91%.

As to `Cc1ccc(CNC(=O)c2cc(S(=O)(=O)N3CCCC3)cn2C)cc1`, the “% Inhibition @ 10 uM” value worked out at 1.1%.

Consider `O=C1c2ccncc2C(=O)N1c1ccc(F)cc1`, for which the “% Inhibition @ 10 uM” value is 2.17%.

With `c1ccc(CN2CCN(Cc3cccc4ccccc34)CC2)cc1`, the “% Inhibition @ 10 uM” value is given as 3.16%.

With `CCOc1ccccc1C1NC(C(=O)O)CS1` (stereo not drawn), the “% Inhibition @ 10 uM” value came to 3.66%.

With `O=C(CCNC(=O)c1ccc(Br)o1)NCCC1=CCCCC1`, the “% Inhibition @ 10 uM” value is on record as -4.32%.

Turning to `CC1(C)[C@H]2CC=C(CN3CCN(c4cccc(Cl)c4)CC3)[C@@H]1C2`, the “% Inhibition @ 10 uM” value was -2.02%.

On to `O=C(O)CNC(=S)N(Cc1ccco1)Cc1ccccc1Cl`, for which the “% Inhibition @ 10 uM” value amounted to 4.42%.

For `Cc1cc(C)nc(Nc2ccccc2C(=O)O)n1`, the “% Inhibition @ 10 uM” value came to 5.03%.

Regarding `Cc1ccc(S(=O)(=O)NCC(=O)NC(C)(C)C)cc1`, the “% Inhibition @ 10 uM” value amounted to 7.42%.

`CCCC/C(=N\CCc1c(C)[nH]c2ccc(OC)cc12)C1=C(O)CCCC1=O`: the “% Inhibition @ 10 uM” value is -0.703%.

Take `CC(=O)Nc1cccc(NC(=O)C(c2ccccc2)c2ccccc2)c1`: the “% Inhibition @ 10 uM” value is -2%.

`CCOC(=O)c1c(C)oc2ncnc(NCCc3ccc(OC)cc3OC)c12`: the “% Inhibition @ 10 uM” value is -6.36%.

Take `Cc1nc(/C=C\C(=O)O)c2cc(C)oc2n1`: the “% Inhibition @ 10 uM” value is given as 4.74%.

As to `Cc1ccn(C(=O)COc2ccc(Br)cc2)n1`, the “% Inhibition @ 10 uM” value is recorded as -4.77%.

Consider `O=C(O)CC(c1ccccc1)c1cc(Br)ccc1O` (stereo not drawn), for which the “% Inhibition @ 10 uM” value is recorded as -3.63%.

`CCOC(=O)C1=C(Cn2ccnc2)NC(=O)NC1c1cccs1` (stereo not drawn): the “% Inhibition @ 10 uM” value is listed as 6.76%.

Take `CCOc1ccc(CCNC(=O)c2c(-n3cccc3)sc(C)c2C)cc1OCC`: the “% Inhibition @ 10 uM” value stood at 10.4%.
